Assay results published in paper PMC4336329 (PLoS ONE, 2015).
In all, about 310,000 compounds went through this assay and about 2,200 (0.71%) showed an effect of 50% or more. The effect is printed as a negative number. The list shows a part of the results.

What follows are compounds tested against human ether-à-go-go-related gene (hERG) potassium channel (human, UniProt Q12809) (assay: primary screen, population patch clamp on CHO cells stably expressing hERG).
human ether-à-go-go-related gene (hERG) potassium channel, sequence (Q12809 whole entry, looked up): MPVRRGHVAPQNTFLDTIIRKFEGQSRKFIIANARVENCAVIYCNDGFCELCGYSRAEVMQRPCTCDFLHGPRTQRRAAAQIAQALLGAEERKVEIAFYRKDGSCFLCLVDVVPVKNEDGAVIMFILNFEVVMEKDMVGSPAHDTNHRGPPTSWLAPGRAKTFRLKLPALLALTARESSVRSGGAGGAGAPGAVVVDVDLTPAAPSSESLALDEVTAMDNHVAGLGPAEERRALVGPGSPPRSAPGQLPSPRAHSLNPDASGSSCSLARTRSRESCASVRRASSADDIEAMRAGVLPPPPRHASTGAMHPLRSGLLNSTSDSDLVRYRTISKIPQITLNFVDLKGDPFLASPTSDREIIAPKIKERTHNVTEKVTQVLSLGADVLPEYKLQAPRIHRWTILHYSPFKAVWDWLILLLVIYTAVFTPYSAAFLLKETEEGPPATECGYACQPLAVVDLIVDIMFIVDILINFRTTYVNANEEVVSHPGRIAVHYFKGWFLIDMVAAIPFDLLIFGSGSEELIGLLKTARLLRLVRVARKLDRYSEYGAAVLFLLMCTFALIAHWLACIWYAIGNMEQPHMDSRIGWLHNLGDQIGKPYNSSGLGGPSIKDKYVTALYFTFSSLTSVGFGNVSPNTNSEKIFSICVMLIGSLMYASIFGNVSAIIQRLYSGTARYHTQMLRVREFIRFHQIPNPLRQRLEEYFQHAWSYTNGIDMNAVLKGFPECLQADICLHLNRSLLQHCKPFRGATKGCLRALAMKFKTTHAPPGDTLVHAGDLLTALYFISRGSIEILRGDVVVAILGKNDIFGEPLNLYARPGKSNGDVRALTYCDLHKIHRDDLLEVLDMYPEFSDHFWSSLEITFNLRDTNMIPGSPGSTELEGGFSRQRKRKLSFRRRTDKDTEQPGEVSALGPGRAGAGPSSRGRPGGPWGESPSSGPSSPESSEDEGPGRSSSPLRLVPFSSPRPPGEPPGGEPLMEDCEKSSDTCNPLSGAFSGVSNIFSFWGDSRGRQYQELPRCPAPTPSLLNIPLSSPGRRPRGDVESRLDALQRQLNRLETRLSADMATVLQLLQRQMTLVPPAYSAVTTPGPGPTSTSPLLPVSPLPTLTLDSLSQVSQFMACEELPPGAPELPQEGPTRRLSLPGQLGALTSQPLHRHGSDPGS

| Compound | hERG current change (%, negative = inhibition) at 1uM |
| --- | --- |
| COCCN(C(=O)COC(=O)CCC(=O)c1ccc(Cl)cc1)c1c(N)n(Cc2ccccc2)c(=O)[nH]c1=O | 9.48% |
| CC(=O)c1cccc(NC(=O)CSc2ccc(-c3ccco3)nn2)c1 | 11.7% |
| Br.c1ccc(CN2CCC(N=C3NN=C(c4ccc5c(c4)OCCO5)CS3)CC2)cc1 | 5.2% |
| Oc1cc2c(cc1O)CN(C(=S)NCCc1ccc(Cl)cc1)CCC2 | 3.97% |
| CCCc1cc(C(=O)N2CCCC(C(=O)c3cccc4ccccc34)C2)n(C)n1 (stereo not shown) | 12.6% |
| Cc1cc2[nH]c(=O)c(=O)[nH]c2cc1S(=O)(=O)N1CCN(c2cccc(C)c2C)CC1 | -2.64% |
| CCCn1c(=O)[nH]c(=O)c2c1nc(-c1ccc(OC(F)(F)C(F)C(F)(F)F)cc1)n2CCOC (stereo not shown) | -2.67% |
| CN(CCOc1ccc(Cl)cc1)C(=O)Cc1ccc(S(=O)(=O)N2CCOCC2)s1 | 2.85% |
| CCOC(=O)CNC(=O)CSc1ncnc2c1cnn2Cc1ccccc1 | 2.68% |
| Cc1nc(-c2ccc(NC(=O)c3ccccc3C)cc2)cs1 | 9.37% |
| C/C(=N/NC(=O)c1cccs1)c1ccc(NC(=O)COc2ccc(Cl)cc2Cl)cc1 | 10.3% |
| COc1ccc(COCC(O)CN2CCOCC2)cc1OC.Cl (stereo not shown) | 11.1% |
| O=C1NC(c2ccncc2)C(C(=O)c2cccs2)C(O)(C(F)(F)F)N1 (stereo not shown) | 5.02% |
| CCCCn1nc2cc(C(=O)NC[C@@H]3CCCO3)ccc2c1OCC | 11.4% |
| CCOC(=O)CSc1ncnc2c1cnn2-c1ccc(C)cc1 | 2.31% |
| O=C(Nc1ccccc1)C1=C[C@H](C2CC2)C[C@H](OCCCCO)O1 | 10.7% |
| COc1ccc(C2C(C#N)=C(N)OC3=C2C(=O)CCC3)cc1OC (stereo not shown) | 14.1% |
| COc1ccc(S(=O)(=O)NCC2CCCN(C(=O)CC3CCCC3)C2)cc1 (stereo not shown) | 6.77% |
| CC(C)C(CCNC(=O)CN1C(=O)c2ccccc2C1=O)c1ccco1 (stereo not shown) | 5.86% |
| CC[C@]12CCCN3CCc4c(n(c5ccccc45)C(=O)C1)C32 (stereo partly shown) | -50.5% |
| O=C(CSc1ccc(-c2ccccc2)nn1)N1CCCc2ccccc21 | -2.12% |
| CC(C)c1ccc(OC(=O)NCCO)cc1 | -4.31% |

| Compound | hERG current change (%, negative = inhibition) at 1uM |
| --- | --- |
| CCn1ncc(C2=NOC(C(=O)NCc3ccc(OC)cc3)C2)c1C (stereo not shown) | 2.98% |
| Cc1nn(C)c(=O)c(N)c1-c1cc(-c2ccc(Cl)c(Cl)c2)n[nH]1 | 12.9% |
| CC(C)[C@H](NC(=O)c1ccccc1)C(=O)O | 8.29% |
| CCC(=O)Nc1cccc(C2=NOC3(C2)C[C@H](C(N)=O)N(C(=O)Cc2ccc([N+](=O)[O-])cc2)C3)c1 (stereo partly shown) | 5.29% |
| CCN(CC)CCCN1CC(=O)N2[C@@H](Cc3c([nH]c4ccccc34)C2(C)C)C1=O | 15% |
| COc1cc(C2NC(=O)N(C)C3=C2C(=O)CCC3)cc(OC)c1OC (stereo not shown) | 13% |
| Cc1ccc(-c2cccc(C3CC=CC4C3C(=O)N(Cc3ccccc3)C4c3cc(C)ccc3F)c2)cc1 (stereo not shown) | 10.8% |
| Cc1cccc(S(=O)(=O)NC2CCCCCCC2)c1 | 4.36% |
| CCOC(=O)/C(=C/c1cn(C)c2ccccc12)NC(=O)c1ccccc1 | 4.49% |
| CC(=O)N1CCC2(CC1)C/C(=N\NC(=S)Nc1ccccc1F)c1cc(O)ccc1O2 | -3.39% |
| Cc1ccc(/C=N\NC(=O)c2csnn2)cc1 | 9.77% |
| CCCn1c(NC(=O)c2cccc(C)c2C)nc2ccccc21 | 8.02% |
| O=C(COC(=O)c1cc(S(=O)(=O)N2CCCCC2)ccc1N1CCOCC1)NC1CCCCC1 | 16.6% |
| CCOc1cc(/C=N/NC(N)=O)ccc1OCC(=O)Nc1ccc(C)c(C)c1 | 6.45% |
| O=C(CCC(=O)Nc1ccc(Cl)cc1Cl)NNC(=O)[C@@H]1CCCC[C@@H]1C(=O)O | 19.8% |
| CN1CCN(Cc2nc3ccccc3c(=O)[nH]2)CC1 | 3.81% |
| Cc1ccc(S(=O)(=O)N(C)CC(=O)O/N=C(\N)c2cccnc2)cc1 | 10.3% |
| COc1ccc(NC(=O)N2CCCC2C(=O)NCCc2ccccc2)cc1 (stereo not shown) | -15.3% |
| c1ccc(OCc2cc(-c3ccccc3)no2)cc1 | 6.55% |
| CN(C)C(=O)CN1C(=O)c2cccc3cccc1c23 | 20.2% |
| COc1cccc(CNC(=O)Cn2ccc3cc(S(=O)(=O)N4CCCCCC4)ccc32)c1OC | 2.93% |
| Oc1cccc(N2Cc3ccccc3C2)c1 | 12.6% |

| Compound | hERG current change (%, negative = inhibition) at 1uM |
| --- | --- |
| CC(C)NS(=O)(=O)c1ccc(CCC(=O)N2CCc3ccccc3C2)cc1 | 2.08% |
| COc1ccc([N+](=O)[O-])cc1C(=O)Nc1ccc(OCC(=O)N2CCOCC2)cc1 | -0.787% |
| CC(=O)NC1=C(C#N)C(c2ccccc2)c2c(ccc3ccccc23)O1 (stereo not shown) | 11.1% |
| CCCc1c(C(=O)NNc2ccc(C)cc2)cnn1-c1ccccc1 | 16.1% |
| O=C(CSc1nc(N2CCOCC2)nc(N2CCOCC2)n1)Nc1ccc(Cl)cc1Cl | 0.366% |
| COc1cc(C(c2c(C)[nH][nH]c2=O)c2c(C)[nH][nH]c2=O)ccc1OC(C)C | 22.1% |
| O=C(NCc1n[nH]c(=S)n1-c1ccc(Cl)c(Cl)c1)c1ccc(S(=O)(=O)N2CCOCC2)cc1 | 6.59% |
| O=c1[nH]c(=S)n(-c2ccc(Br)cc2)c(O)c1C=Nc1ccc(N2CCOCC2)cc1 | -2.16% |
| COCCNC(=O)c1ccc2c(=O)n(CCCN3CCCC3=O)c(=S)[nH]c2c1 | 8.18% |
| COc1ccc(/C=C2\Oc3cc(OC(=O)N4CCOCC4)ccc3C2=O)c(OC)c1 | 13.8% |
| CCCOc1ccc(/C=N/NC(=O)C(=O)Nc2ccccn2)cc1 | 8.64% |
| CCOC(=O)c1ccc(N2CCOCC2)c(NS(=O)(=O)c2ccc(F)cc2)c1 | 12% |
| NS(=O)(=O)c1ccc(NC(=S)NCc2cccs2)cc1 | 10.3% |
| COc1ccc(CCN2CCCC(CN(C)Cc3cccc(OC)c3)C2)cc1 (stereo not shown) | 3.88% |
| CC(C)COC(=O)c1cc(=O)[nH]c2ccccc12 | -3.38% |
| Cc1ccccc1OCCc1c(C)[nH]c(=S)[nH]c1=O | 11.5% |
| CSC1=C(C#N)C(c2sccc2C)CC(=O)N1 (stereo not shown) | 14.3% |
| COc1ccc(C(=O)COC(=O)CN2C(=O)NC3(CC(C)CC(C)(C)C3)C2=O)c(OC)c1 (stereo not shown) | -8.25% |
| NC(CO)(CO)CO.Nc1ncnc2c1ncn2[C@@H]1O[C@H](COP(=O)(O)OP(=O)(O)OP(=O)(O)O)[C@@H](O)[C@H]1O.O | 8.81% |
| O=C(CCl)c1ccc2c(c1)CCN2C(=O)C1CC1 | 6.13% |
| Nc1ccc(S(=O)(=O)Nc2ccc(Cl)nn2)cc1 | 7.65% |
| CCn1c(SCc2ccc(Cl)c(Cl)c2)nnc1C(C)NC(=O)c1ccc(OC)cc1 (stereo not shown) | 14.7% |

| Compound | hERG current change (%, negative = inhibition) at 1uM |
| --- | --- |
| CCOC(=O)N1C=CC=C[C@@H]2[C@@H](N3C(=O)c4ccccc4C3=O)C(=O)N21 | 12% |
| CC(C)C(OC(=O)c1ccc(Cl)nc1)C(=O)NC1CCCCC1 (stereo not shown) | 13.7% |
| Cc1ccc(CNC(=O)c2ccc(CS(=O)(=O)c3ccccc3C)o2)cc1 | 21.2% |
| CCOC(=O)c1c(/N=C/C2=C(O)CC(C)(C)CC2=O)sc2c1CCCC2 | 9.11% |
| CC(C)CNS(=O)(=O)c1ccc(OCC(=O)Nc2ccc3c(c2)OCO3)c(Cl)c1 | 7.28% |
| Cc1ccc(C(=O)N/N=C2\CCc3ccccc32)c(C)c1 | 8.99% |
| Cc1ccc(S(=O)(=O)N(CC(O)CN2C(=O)NC(C)(C)C2=O)c2ccccc2)cc1 (stereo not shown) | -28.4% |
| O=C(CNC(=O)c1cccc(OC(F)F)c1)OCn1nnc2ccccc2c1=O | 13.3% |
| CCOc1ccc2nc3cc(NCc4ccc(OC)cc4)ccc3c(N)c2c1 | 7% |
| CC(C)OCCCNC(=O)CN1C(=O)CSc2ccc(S(=O)(=O)N3CCCCC3)cc21 | 0.359% |
| Nc1cc(-c2ccc(Cl)cc2)nn1-c1ccccc1 | 4.45% |
| CC(OCc1ccccc1)C(NC(=O)OC(C)(C)C)C(=O)NCC1CCCO1 (stereo not shown) | 2.37% |
| COc1ccc(-n2nc3c(N4CCC(C(=O)NCc5ccccc5)CC4)nnc(C)c3c2C)cc1 | 20.3% |
| O=C(CSc1nnc(-c2ccccc2O)o1)Oc1ccc(OCc2ccccc2)cc1 | 18% |
| Cc1cc(C)c(C(=O)N2CCCC(N3CCN(c4cccc(C(F)(F)F)c4)CC3)C2)o1 (stereo not shown) | 4.1% |
| Cc1csc2ncnc(N3CCN(C(=S)Nc4ccc(F)cc4F)CC3)c12 | -2.52% |
| N#CCCN(C(=O)COC(=O)CCc1nc2ccccc2c(=O)[nH]1)c1ccc(F)cc1 | 7.83% |
| CC(C)Oc1ccc(/C(O)=C2/C(=O)C(=O)N(CCCn3ccnc3)C2c2cccnc2)cc1 (stereo not shown) | 10.6% |
| CC(C)Cc1ccc(C(=O)Nc2ccc(Cc3ccncc3)cc2)o1 | 11.9% |
